{"source": "PubChem BioAssay AID540267", "about": "(National Center for Advancing Translational Sciences (NCATS), 2011)", "note": "Screen size: about 340,000 compounds; about 530 (0.16%) were called active. The shares of active, inactive and inconclusive entries below differ from those in the screen. Cut-off read from the data, not from the text of the source: active = activity change below about -80%; inconclusive = between about -30% and that limit; inactive = weaker than that. % is set by controls: 0 for no effect and ±100 for the full control effect."}
{"test": "Small Molecules that selectively kill Giardia lamblia: qHTS;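 note: parasites exposed to compound for two days anaerobically before the ATP read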", "details": "Giardia lamblia trophozoite viability; at 7.66 µM; stronger effect = lower value", "description": "Giardia lamblia is a human pathogen afflicting impoverished nations, and the most common cause of outbreaks of diarrhea in the United States. Giardia has been classified by the CDC as a category B bioterrorism organism. The favored anti giardiasis drugs in the US are metronidazole or tinidazole, compounds that have undesirable side effects. Moreover, increasing resistance to drug regimes and recurrence are a concern. It is thus clear that alternative drug treatments are needed.\nIn a collaboration between the University of Maryland, College Park and the NIH Chemical Genomics Center, a bioluminescence Giardia viability assay based on the trophozoites' ATP content was developed. This assay is suitable for high throughput screening, and miniaturized the assay for compound screening in 1536-well plates. The goal of the project is to screen the Molecular Libraries Small Molecule Repository (MLSMR) for compounds that selectively kill Giardia trophozoites.\nNIH Chemical Genomics Center [NCGC]\nNIH Molecular Libraries Probe Centers Network [MLPCN]\nAssay Submitter (PI): Osnat Herzberg, University of Maryland, College Park, MD.\n1. Dispense 2 ul/well media\n2. Dispense 23 nl/well compounds\n3. Dispense 4 ul/well Giardia trophozoites at a concentration of 100 cells/well\n4. Incubate 48 hrs at 37 deg C anaerobically\n5. Dispense 4 ul/well ATPLite 1-Step Luminescence assay kit\n6. Incubate 15-30 min at room temperature\n7. Read luminescence signal on ViewLux plate reader"}
{"smiles": "COc1cc2sc(-c3ccccc3OC)c(-c3ccc(O)cc3)c2cc1OC", "activity change": "inconclusive: -48.1% [inhibitor]"}
{"smiles": "COCCCNc1nc2ccccc2nc1NS(=O)(=O)c1ccc(C)c(C)c1", "activity change": "inconclusive: -30.8% [inhibitor]"}
{"smiles": "CN(C)C(=O)CCc1ccc2c3c([nH]c2c1)[C@]1(CCc2ccccc2)[C@@H](C(=O)N2CCCCC2)C[C@H](CC(=O)NCCc2ccccn2)C(=O)N1CC3", "activity change": "inconclusive: -30.4% [inhibitor]"}
{"smiles": "CCN1/C(=C\\c2ccc3ccccc3[n+]2CC)Sc2cc(C)ccc21", "activity change": "inconclusive: -47.7% [inhibitor]"}
{"smiles": "CC(CSc1nc2ccccc2s1)Cn1c(N2CCCC2)nc2c1c(=O)[nH]c(=O)n2C", "note": "(configuration not stated)", "activity change": "inconclusive: -40% [inhibitor]"}
{"smiles": "Oc1ccc2ccccc2c1/C=N/c1nccs1", "activity change": "inactive: -7.15%"}
{"smiles": "COc1ccc(C2CC(c3cccs3)=NN2C(=O)COC(=O)c2cncc(Br)c2)cc1OC", "note": "(configuration not stated)", "activity change": "inactive: -13.6%"}
{"smiles": "COc1ccc(NC(=O)c2cccc3c2C(=O)N(C2CCCCC2)C3)cc1", "activity change": "inactive: -7.92%"}
{"smiles": "CN(C)c1cc(N/N=C\\c2ccccc2)nc(N(C)C)n1", "activity change": "inactive: -7.62%"}
{"smiles": "Cc1ccc(S(=O)(=O)N2[C@@H](c3ccccc3)C(C(=O)O)=CC[C@H]2c2cccs2)cc1", "activity change": "inconclusive: -41.1% [inhibitor]"}
{"smiles": "CC1(C)CCc2cc(S(=O)(=O)N3CCN(c4nc(-c5cccs5)nc5ccccc45)CC3)ccc2O1", "activity change": "inactive: -0.147%"}
{"smiles": "O=C(O)c1cc(-c2cccs2)nc2cc3c(cc12)OCCO3", "activity change": "inconclusive: -32.2% [inhibitor]"}
{"smiles": "CC(=O)NCCNC(=O)c1ccc(CSc2ccc(Cl)cc2)cc1", "activity change": "inconclusive: -51.1% [inhibitor]"}
{"smiles": "Cc1cc(C)c(NC(=O)C(=O)NCc2ccco2)c(C)c1", "activity change": "inconclusive: -31% [inhibitor]"}
{"smiles": "CCCCSc1nc2c(cnn2-c2ccc(C)c(C)c2)c(=O)[nH]1", "activity change": "inactive: -11.7%"}
{"smiles": "Brc1ccc(-c2csc3ncnc(-n4nnc5ccccc54)c23)cc1", "activity change": "inactive: -10.4%"}
{"smiles": "O=C(COc1nsnc1N1CCOCC1)Nc1ccc([N+](=O)[O-])cc1", "activity change": "inconclusive: -33.6% [inhibitor]"}
{"smiles": "CC(C)Cn1c(=S)[nH]c2cc(C(=O)NCc3ccccc3F)ccc2c1=O", "activity change": "inconclusive: -51.1% [inhibitor]"}
{"smiles": "Cc1ccc(CN2C(=O)N/C(=C/c3ccc(-c4ccc(C(=O)O)cc4)o3)C2=O)cc1", "activity change": "inactive: 11%"}
{"smiles": "COc1ccc(C2=CN(Cc3ccccc3)CCC2=O)cc1", "activity change": "inconclusive: -32.7% [inhibitor]"}
{"smiles": "c1ccc(C2=Nn3c(nnc3-c3ccncc3)SC2)cc1", "activity change": "inactive: 4.63%"}
{"smiles": "Cc1cccc2cc(CNCc3ccccc3)c(Cl)nc12", "activity change": "inactive: 0.0432%"}
{"smiles": "Cc1ccc(S(=O)(=O)N2[C@@H](c3cccc(Cl)c3)C(C(=O)O)=CC[C@H]2c2ccc(C(C)C)cc2)cc1", "activity change": "inconclusive: -30.4% [inhibitor]"}
{"smiles": "COc1ccc(/C=N/N=C2\\SC(CC(=O)O)C(=O)N2c2ccccc2)cc1", "note": "(configuration not stated)", "activity change": "inconclusive: -38.5% [inhibitor]"}
{"smiles": "CSc1nc2ccc(NC(=O)c3ccc(Cl)s3)cc2s1", "activity change": "inconclusive: -32.9% [inhibitor]"}
{"smiles": "CC(C)C12CN3CC(C(C)C)(CN(C1)C3c1ccc([N+](=O)[O-])o1)C2=O", "note": "(configuration not stated)", "activity change": "inconclusive: -64.3% [inhibitor]"}
{"smiles": "CCOC(=O)C1=Nc2ccccc2C1=[N+]=[N-]", "activity change": "inconclusive: -41.3% [inhibitor]"}
{"smiles": "Cc1nnc(SCC(=O)N2CC(=O)Nc3ccccc32)n1Cc1ccccc1", "activity change": "inactive: -10.1%"}
{"smiles": "CC[C@H](C)[C@H](NC(=O)CNC(=O)COc1cc2c(c3oc(=O)cc(C)c13)CCC(C)(C)O2)C(=O)O", "activity change": "inconclusive: -34.3% [inhibitor]"}
{"smiles": "COc1ccc2cc(-c3cc(C(=O)O)c4ccccc4n3)ccc2c1", "activity change": "active: -105%"}
{"smiles": "Cc1cc(C(=O)Nc2ccc(Cl)cc2)c(C)n1-c1ccccc1", "activity change": "inconclusive: -38.5% [inhibitor]"}
{"smiles": "Cc1ccc(-c2c(C(=O)NCCc3ccccc3)oc(=O)c3ccccc23)cc1", "activity change": "inconclusive: -43.1% [inhibitor]"}
{"smiles": "COc1ccc(-c2nnc(-c3ccc(N(C)C)cc3)o2)cc1", "activity change": "inactive: 9.2%"}
{"smiles": "C=CCN(C(=O)Cn1nc(C)n2c(cc3cc(C)ccc32)c1=O)c1ccccc1", "activity change": "inactive: -13.8%"}
{"smiles": "CCC(=O)Nc1cc2nn(-c3ccc(OC)cc3)nc2cc1C", "activity change": "inconclusive: -37% [inhibitor]"}
{"smiles": "COc1cccc2cc(C(=O)Nc3cccc(C)n3)c(=O)oc12", "activity change": "inconclusive: -39.8% [inhibitor]"}
{"smiles": "Cc1cccc(OCCCC(=O)NCC(=O)Nc2cccc(C)c2C)c1", "activity change": "inactive: -21.9%"}
{"smiles": "NC(=S)NN=C1CCCCCCCC1", "activity change": "inconclusive: -74.3% [inhibitor]"}
{"smiles": "O=c1/c(=C\\c2ccc(O)cc2)sc2nc(-c3ccccc3)c(-c3ccccc3)n12", "activity change": "inactive: 1.38%"}
{"smiles": "Cc1ccc(N=c2c([N+](=O)[O-])nn(-c3ccccc3)n2O)c(C)c1", "activity change": "inconclusive: -78.3% [inhibitor]"}
{"smiles": "Cc1ccc([N+](=O)[O-])cc1NC(=O)C(C)N1CCCCC1", "note": "(configuration not stated)", "activity change": "inactive: 15.5%"}
{"smiles": "COc1ccc(CCn2c(-c3cc([N+](=O)[O-])cc([N+](=O)[O-])c3)nc3nc4ccccc4nc32)cc1OC", "activity change": "inconclusive: -30.4% [inhibitor]"}
{"smiles": "O=C(O)COc1ccc(/C=N/n2cnc3scc(-c4cccs4)c3c2=O)cc1", "activity change": "inactive: -3.53%"}
{"smiles": "CCOc1ccc(-n2nc3ccc(N)cc3n2)cc1", "activity change": "inconclusive: -46.1% [inhibitor]"}
{"smiles": "C=CCOc1cccc(C(=O)/C=C2/C(=O)Nc3ccccc32)c1", "activity change": "inconclusive: -33.8% [inhibitor]"}
{"smiles": "COc1ccc(-n2nc3cc(N)c(Br)cc3n2)cc1", "activity change": "inactive: -11.1%"}
{"smiles": "Cc1ccc(-c2nn3c(C)nnc3s2)cc1NC(=O)c1ccc(OC(C)C)cc1", "activity change": "inconclusive: -38.1% [inhibitor]"}
{"smiles": "Cc1cc(NC(=O)CSc2nc(C3CC3)nc3sc4c(c23)CCC(C)C4)no1", "note": "(configuration not stated)", "activity change": "inactive: 0.887%"}
{"smiles": "COc1ccc(CC(=O)NCc2nnc(SCC(=O)Nc3ncc(C)s3)n2C)cc1", "activity change": "inconclusive: -30.3% [inhibitor]"}
{"smiles": "Cc1ccc(OCC(=O)N2CCN(c3ccc([N+](=O)[O-])c(N4CCOCC4)c3)CC2)cc1", "activity change": "inactive: -20%"}
{"smiles": "COc1ccc(C(=O)Nc2cc3c(cc2N2CCCCC2)n(C)c(=O)n3C)cc1OC", "activity change": "inactive: -3.23%"}
{"smiles": "COc1ccc2nc(SCCC(=O)O)cc(C)c2c1", "activity change": "inconclusive: -33.7% [inhibitor]"}
{"smiles": "CSc1cccc(NS(=O)(=O)c2cn(C)cn2)c1", "activity change": "inconclusive: -56.2% [inhibitor]"}
{"smiles": "Cc1nc(SCC(=O)NCc2cccs2)nc(C)c1C", "activity change": "inconclusive: -37.1% [inhibitor]"}
{"smiles": "COC(=O)c1[nH]c2c(c1C)C(=O)CC(c1cccs1)C2", "note": "(configuration not stated)", "activity change": "inconclusive: -31.2% [inhibitor]"}
{"smiles": "COc1ccc(/C=C/C(=O)Nc2cc(=O)n(C)c(=O)n2C)cc1", "activity change": "inconclusive: -37% [inhibitor]"}
{"smiles": "O=C(CSC1=NCCS1)Nc1ccc(S(=O)(=O)N2CCCCCC2)cc1", "activity change": "inactive: 18.2%"}
{"smiles": "Cc1cc(C)c(NC(=O)CN2C(=O)NC3(CCCCC3)C2=O)c(C)c1", "activity change": "inactive: -11.9%"}
{"smiles": "Cc1nc2ccccc2c(=O)n1/N=C/c1ccc(O)cc1O", "activity change": "inactive: -1.58%"}
{"smiles": "O=C(/C=C/c1ccccc1[N+](=O)[O-])NCCCN1CCCC1=O", "activity change": "inconclusive: -36.3% [inhibitor]"}
{"smiles": "CC(=O)Nc1ccc(/C=C(\\C#N)C(=O)NC2CCCCC2C)cc1", "note": "(configuration not stated)", "activity change": "inactive: -8.17%"}
{"smiles": "Cc1cc(=O)oc2c(C)c(OC(C)C(=O)NCCN3CCOCC3)ccc12", "note": "(configuration not stated)", "activity change": "inconclusive: -34.3% [inhibitor]"}
{"smiles": "Cn1c(N)c(N=Cc2ccccc2)c(=O)n(C)c1=O", "activity change": "inconclusive: -38.7% [inhibitor]"}
{"smiles": "CCOC(=O)N1CCN(C(=O)c2ccc(Cn3c(=S)[nH]c4cc(OCC)c(OCC)cc4c3=O)cc2)CC1", "activity change": "inactive: 6.44%"}
{"smiles": "Cc1ccc([N+](=O)[O-])cc1-c1ccc(/C=N/NC(=O)c2cc3c(ccc4ccccc43)o2)o1", "activity change": "inactive: -17.3%"}
{"smiles": "COc1ccc(/C=C2\\CCc3ccccc3C2=O)cc1O", "activity change": "inconclusive: -35.7% [inhibitor]"}
{"smiles": "c1ccc2nc(-c3nc4ccccc4[nH]3)ccc2c1", "activity change": "inconclusive: -73.6% [inhibitor]"}
{"smiles": "Cc1ccc(NC(=O)[C@H](NC(=O)[C@@H]2Cc3ccccc3CN2)c2ccccc2)cc1C", "activity change": "inconclusive: -39.8% [inhibitor]"}
{"smiles": "Cc1cc(-c2n[nH]c(=S)n2/N=C/C(Br)=C/c2ccccc2)n[nH]1", "activity change": "inconclusive: -30.6% [inhibitor]"}
{"smiles": "O=C(CCCCCCC(=O)Nc1ccccc1)NO", "activity change": "inconclusive: -43.8% [inhibitor]"}
{"smiles": "COc1ccc(CN(C)C(=O)c2sccc2-c2ccccc2)c(OC)c1", "activity change": "inconclusive: -35.2% [inhibitor]"}
{"smiles": "O=C(O)CCCN(Cc1cccc(Br)c1)S(=O)(=O)c1ccc(Br)cc1", "activity change": "inactive: -7.62%"}
{"smiles": "CCN1C[C@@H]2[C@@H]3C(=O)N(Cc4ccccc4)C(=O)[C@@H]3[C@](C)(C1=O)N2C(=O)c1ccccc1", "activity change": "inconclusive: -48.9% [inhibitor]"}
{"smiles": "O=C(N/N=C/c1cn(Cc2ccccc2)c2ccccc12)c1cccnc1", "activity change": "inconclusive: -33.4% [inhibitor]"}
{"smiles": "CCC(=O)N1CCN(c2ccc(NC(=O)c3ccc([N+](=O)[O-])o3)cc2Cl)CC1", "activity change": "active: -92.2%"}
{"smiles": "Cc1ccc(C(=O)N2CCN(c3ccc(NC(=O)c4ccc5c(c4)OCCO5)cc3)CC2)cc1", "activity change": "inactive: -12%"}
{"smiles": "COc1ccc2c(C)cc(N3CCCCCC3)nc2c1", "activity change": "inactive: 9.13%"}
